# Measured values as given in publication PMC6005816.
# Positions count from the first letter of the chain named. No constants are given. Whether binding was seen depends on the method and setting. In cells and extracts the contact can be indirect. Some entries that bind do so weakly or less than the wild type. Sequences can lack the tags named with a protein.
# T1: VPS33A Y438D I441K-FLAG-BirA* (human) (UniProt Q96AX1)
# T1 sequence: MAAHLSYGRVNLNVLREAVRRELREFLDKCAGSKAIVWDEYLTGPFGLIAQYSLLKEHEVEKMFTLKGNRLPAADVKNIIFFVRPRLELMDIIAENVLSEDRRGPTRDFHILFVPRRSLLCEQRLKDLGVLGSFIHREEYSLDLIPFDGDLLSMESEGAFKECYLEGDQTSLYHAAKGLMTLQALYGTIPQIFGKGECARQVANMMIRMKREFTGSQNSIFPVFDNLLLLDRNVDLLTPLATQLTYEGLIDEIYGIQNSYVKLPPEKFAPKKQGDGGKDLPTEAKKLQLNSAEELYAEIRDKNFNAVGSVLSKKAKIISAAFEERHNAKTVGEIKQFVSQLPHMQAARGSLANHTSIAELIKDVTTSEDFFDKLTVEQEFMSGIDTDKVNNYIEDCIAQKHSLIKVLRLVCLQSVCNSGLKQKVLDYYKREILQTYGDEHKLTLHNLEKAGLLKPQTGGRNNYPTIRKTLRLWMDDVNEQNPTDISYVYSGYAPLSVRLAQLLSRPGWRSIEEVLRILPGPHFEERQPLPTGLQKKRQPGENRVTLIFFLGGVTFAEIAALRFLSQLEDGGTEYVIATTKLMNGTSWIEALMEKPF
# T2: VPS33A-FLAG-BirA* (human) (UniProt Q96AX1)
# T2 sequence: T1 sequence with D438Y, K441I
# B1: endogenous VPS16 (protein, UniProt Q9H269 1-839)
# chain: MDCYTANWNPLGDSAFYRKYELYSMDWDLKEELRDCLVAAAPYGGPIALLRNPWRKEKAASVRPVLDIYSASGMPLASLLWKSGPVVSLGWSAEEELLCVQEDGAVLVYGLHGDFRRHFSMGNEVLQNRVLDARIFHTEFGSGVAILTGAHRFTLSANVGDLKLRRMPEVPGLQSAPSCWTVLCQDRVAHILLAVGPDLYLLDHAACSAVTPPGLAPGVSSFLQMAVSFTYRHLALFTDTGYIWMGTASLKEKLCEFNCNIRAPPKQMVWCSRPRSKERAVVVAWERRLMVVGDAPESIQFVLDEDSYLVPELDGVRIFSRSTHEFLHEVPAASEEIFKIASMAPGALLLEAQKEYEKESQKADEYLREIQELGQLTQAVQQCIEAAGHEHQPDMQKSLLRAASFGKCFLDRFPPDSFVHMCQDLRVLNAVRDYHIGIPLTYSQYKQLTIQVLLDRLVLRRLYPLAIQICEYLRLPEVQGVSRILAHWACYKVQQKDVSDEDVARAINQKLGDTPGVSYSDIAARAYGCGRTELAIKLLEYEPRSGEQVPLLLKMKRSKLALSKAIESGDTDLVFTVLLHLKNELNRGDFFMTLRNQPMALSLYRQFCKHQELETLKDLYNQDDNHQELGSFHIRASYAAEERIEGRVAALQTAADAFYKAKNEFAAKATEDQMRLLRLQRRLEDELGGQFLDLSLHDTVTTLILGGHNKRAEQLARDFRIPDKRLWWLKLTALADLEDWEELEKFSKSKKSPIGYLPFVEICMKQHNKYEAKKYASRVGPEQKVKALLLVGDVAQAADVAIEHRNEAELSLVLSHCTGATDGATADKIQRARAQAQKK
# How the values were obtained:
# [1] = biological target: T1, VPS33A Y438D I441K-FLAG-BirA* (human); assay: co-IP; anti-FLAG M2 magnetic resin on lysates of stable HEK293 Flp-In T-REx cells expressing FLAG-BirA*-tagged bait (tetracycline-induced); 10 mM Tris-HCl pH 7.5, 150 mM NaCl, 0.5 mM EDTA, 0.5% NP-40; 1 h at 4 °C; eluted with FLAG peptide; blotted for endogenous protein
# [2] = biological target: T2, VPS33A-FLAG-BirA* (human); assay: as above
binder,measurement,setting,value
B1,binding,[1],no binding
same,binding,[2],binds
